{"source": "paper PMC11477209", "about": "“Toxicological Evaluation of Kaempferol and Linearolactone as Treatments for Amoebic Liver Abscess Development in Mesocricetus auratus” (International Journal of Molecular Sciences, 2024)", "conditions": "IC50 normal cell line/IC50 trophozoites", "data": [{"smiles": "C[C@]12C[C@H](c3ccoc3)OC(=O)[C@H]1CCC13COC(=O)C1=CC=C[C@H]32", "note": "(stereo partly drawn) [LL, (4S,7R,9R,10S)-7-(furan-3-yl)-9-methyl-6,16-dioxatetracyclo[8.7.0.01,14.04,9]heptadeca-11,13-diene-5,15-dione]", "values": [{"measurement": "SI (selectivity index)", "value": "> 32"}]}]}
